{"source": "PubChem BioAssay AID488969", "about": "(Vanderbilt High Throughput Screening Facility, 2010)", "note": "In all, about 110,000 compounds were measured (“z-score”: median about -0.1, highest 2% from about 2 on). The list shows a part of the results. The source made the active and inactive calls.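 The calls were made as follows: active = z-score in the third read window above 3 or below -3; inactive = the rest.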", "data": [{"target": "Metabotropic glutamate receptor 8 (Rattus norvegicus) (UniProt P70579)", "sequence (P70579 whole entry, looked up)": "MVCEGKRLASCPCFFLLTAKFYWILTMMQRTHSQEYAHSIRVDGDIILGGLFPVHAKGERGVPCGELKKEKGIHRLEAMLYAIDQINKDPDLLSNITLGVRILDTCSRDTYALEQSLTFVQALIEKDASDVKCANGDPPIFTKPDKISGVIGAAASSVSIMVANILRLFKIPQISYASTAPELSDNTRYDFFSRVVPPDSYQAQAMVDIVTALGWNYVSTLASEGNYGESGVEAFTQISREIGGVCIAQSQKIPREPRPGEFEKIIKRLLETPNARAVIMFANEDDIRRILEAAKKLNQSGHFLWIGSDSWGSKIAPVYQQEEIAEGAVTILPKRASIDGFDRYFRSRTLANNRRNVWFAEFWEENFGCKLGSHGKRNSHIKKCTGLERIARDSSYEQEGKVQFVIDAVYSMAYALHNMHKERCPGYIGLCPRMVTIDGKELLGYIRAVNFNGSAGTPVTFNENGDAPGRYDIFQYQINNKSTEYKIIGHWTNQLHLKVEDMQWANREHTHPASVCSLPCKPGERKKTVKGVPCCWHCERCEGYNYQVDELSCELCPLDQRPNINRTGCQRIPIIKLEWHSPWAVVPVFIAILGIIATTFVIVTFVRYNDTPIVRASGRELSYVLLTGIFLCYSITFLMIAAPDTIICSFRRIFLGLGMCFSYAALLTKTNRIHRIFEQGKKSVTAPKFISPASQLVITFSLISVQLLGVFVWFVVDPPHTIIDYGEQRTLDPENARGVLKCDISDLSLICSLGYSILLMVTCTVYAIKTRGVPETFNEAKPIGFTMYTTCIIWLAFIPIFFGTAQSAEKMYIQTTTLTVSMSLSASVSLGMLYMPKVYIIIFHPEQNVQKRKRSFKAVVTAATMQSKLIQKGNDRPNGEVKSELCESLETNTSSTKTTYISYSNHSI", "assay": "rat mGluR8 modulators via GIRK flux, primary screen, cell-based, thallium flux, HTS (AID 488969)", "conditions": "HEK293 rat mGluR8, GIRK (G protein-gated inwardly rectifying potassium channel) thallium flux, FluoZin2; at 10 µM; stronger effect = higher value; submaximal glutamate (EC20) added with thallium", "values": [{"smiles": "Cc1ccc(S(=O)(=O)N2CCc3ccccc3C2CN2C(=O)c3ccccc3C2=O)cc1", "note": "(stereo unspecified)", "z-score": -0.265}, {"smiles": "O=C(NC1CCCC1)C1CCCN(S(=O)(=O)c2cccc3cccnc23)C1", "note": "(stereo unspecified)", "z-score": 0.397}, {"smiles": "CCSc1nnc(NC(=O)C(C)(C)C)s1", "z-score": 1.36}, {"smiles": "CC(=O)c1c(C)[nH]c(C(=O)NCc2ccc(C)cc2)c1C", "z-score": -0.596}, {"smiles": "CC(C)CCN=Cc1c(O)n(-c2ccccc2)c(=O)c2ccccc12", "z-score": -0.573}, {"smiles": "N#C/C(C(N)=O)=C1/CCc2ccccc2N1", "z-score": -0.382}, {"smiles": "CCOC(=O)C1CCCN(C(=O)c2cc(Nc3ccc(OC)cc3OC)nc3ccccc23)C1", "note": "(stereo unspecified)", "z-score": -0.718}, {"smiles": "CC(NC(=O)CCc1ccc(S(=O)(=O)NC2CCCCC2)cc1)c1ccccc1", "note": "(stereo unspecified)", "z-score": -0.297}, {"smiles": "Cc1c(NC(=O)c2cnn3c2NC(c2ccc(Br)cc2)CC3C(F)(F)F)c(=O)n(-c2ccccc2)n1C", "note": "(stereo unspecified)", "z-score": -0.233}, {"smiles": "Cc1ccc(S(=O)(=O)NNC(=O)NC23CC4CC(CC(C4)C2)C3)cc1", "z-score": 0.125}, {"smiles": "O=C(Cn1cc2c(n1)CCCC2)NC1CCN(Cc2ccccc2)CC1", "z-score": -0.592}, {"smiles": "COc1ccccc1-c1nnc(SCC(=O)c2ccc(C3CCCCC3)cc2)n1Cc1ccco1", "z-score": -0.0485}, {"smiles": "CCC1CCc2sc(C(=O)O)cc2C1", "note": "(stereo unspecified)", "z-score": 0.188}, {"smiles": "C=CCn1c(=NC(=O)c2cc(-c3cccs3)nc3ccccc23)sc2cc(S(N)(=O)=O)ccc21", "z-score": -0.218}, {"smiles": "Cn1c(SCC(=O)N2CCN(S(=O)(=O)c3ccccc3)CC2)nc2ccccc21", "z-score": -0.0748}, {"smiles": "COCC(=O)N(C)C1(c2nnnn2CCOC(=O)Nc2ccc(Cl)cc2)CCCC1", "z-score": -0.281}, {"smiles": "CC1(C)CC(=O)C2=C(C1)Nc1[nH]n(-c3ccccc3)c(=O)c1C2c1ccc2c(c1)OCO2", "note": "(stereo unspecified)", "z-score": -2.23}, {"smiles": "Cc1cc(C)nc(SCc2nnc(SCC(=O)Nc3nccs3)n2C)n1", "z-score": 0.465}, {"smiles": "CCC(=O)NCCSc1c[nH]c2ccccc12", "z-score": -0.228}, {"smiles": "CCN(CC)CCNC1=NCCn2c1cc1cc(OC)ccc12", "z-score": 0.812}, {"smiles": "COc1ccc(-n2c(C)cc(C(=O)CN3C(=O)NC4(CCc5ccccc54)C3=O)c2C)cc1", "note": "(stereo unspecified)", "z-score": 0.335}, {"smiles": "O=C(/C=C/c1ccc(Br)cc1)NCc1cccs1", "z-score": 0.0715}, {"smiles": "COc1cccc(C2/C(=C(/O)c3cnn(-c4ccccc4)c3C)C(=O)C(=O)N2CCN(C)C)c1OC", "note": "(stereo unspecified)", "z-score": 0.211}, {"smiles": "O=C(C1=COCCO1)N1CCN(C(c2ccccc2)c2ccccc2)CC1", "z-score": -0.51}, {"smiles": "COc1ccc(OC)c(S(=O)(=O)Nc2cc(OC)c(Cl)cc2OC)c1", "z-score": 0.536}, {"smiles": "Cc1onc(-c2ccccc2)c1C(=O)N1CCN(C)CC1", "z-score": 0.0323}, {"smiles": "Nc1ccc2c(c1)C(=O)C(=O)c1ccccc1-2", "z-score": -0.694}, {"smiles": "CCOC(=O)c1cccnc1SCC(=O)NC(C)CC", "note": "(stereo unspecified)", "z-score": -0.307}, {"smiles": "CNc1nnc(-c2cc3cc(Cl)ccc3oc2=O)s1", "z-score": 0.261}, {"smiles": "CCOC(=O)/C(C#N)=C\\c1ccc(OCC(=O)Nc2ccc(C)cc2C)c(OC)c1", "z-score": 0.292}, {"smiles": "CCN(CC)S(=O)(=O)c1cc(NC(=O)C(C)N(C)CC(=O)Nc2c(C)cccc2C)ccc1C", "note": "(stereo unspecified)", "z-score": -0.507}, {"smiles": "O=C(NCc1ccccc1Br)c1ccco1", "z-score": 0.426}, {"smiles": "CN(C)c1ccc(N=c2sc3ccccc3n2C)cc1", "z-score": -0.0969}, {"smiles": "COc1cc(OC)c(/C=N/NC(=O)c2ccc([N+](=O)[O-])cc2)cc1Br", "z-score": 0.0834}, {"smiles": "CCOc1ccc(NC(=O)CCNS(=O)(=O)c2cccs2)cc1", "z-score": -0.225}, {"smiles": "O=S(=O)(c1ccc(Cl)cc1)N1CCN=C1SCc1ccc(Cl)c(Cl)c1", "z-score": 0.114}, {"smiles": "CCCSc1nc(SCC(=O)NCc2ccccc2)c2c3c(sc2n1)COC(C)(C)C3", "z-score": -0.825}, {"smiles": "CCCc1nc2ccccc2c(=O)n1/N=C/c1ccc(O)c(O)c1", "z-score": 1.52}, {"smiles": "Cc1ccc(S(=O)(=O)C2CS(=O)(=O)CC2O)cc1", "note": "(stereo unspecified)", "z-score": -0.076}, {"smiles": "CCOC(=O)c1cnn(CCOC(=O)C(C)(C)C)c1NC(=O)C(C)(C)C", "z-score": -0.215}, {"smiles": "CCC(=O)Nc1ccc(NC(=O)CSc2nnnn2C(C)C)cc1", "z-score": -0.24}, {"smiles": "C=CCn1c(SC(C)C(=O)NC2(C#N)CCCCC2)nnc1-c1ccc(OC)cc1", "note": "(stereo unspecified)", "z-score": 0.188}, {"smiles": "O=C(Cn1c(COc2ccccc2)nc2ccccc21)Nc1cc(Cl)cc(Cl)c1", "z-score": 0.0164}, {"smiles": "COc1ccc(-c2cc(C(=O)NCCN3CCOCC3)c3ccccc3n2)c(OC)c1", "z-score": 0.0852}, {"smiles": "CCCC(=O)Nc1c2c(nn1-c1ccc(OC)cc1)CS(=O)C2", "note": "(stereo unspecified)", "z-score": -1.01}, {"smiles": "CCCOc1cccc(C(=O)NC(=S)Nc2cccc(C(F)(F)F)c2)c1", "z-score": "active: 3.57"}, {"smiles": "COc1ccccc1-c1nnc(SC(C(=O)c2c[nH]c3ccccc23)c2ccccc2)n1C", "note": "(stereo unspecified)", "z-score": -0.221}, {"smiles": "CCCCNC(=O)Nc1c(C(=O)OCC)[nH]c2ccccc12", "z-score": 0.168}, {"smiles": "CCOC(=O)N/N=C/c1cc(C)n(-c2cccc3ccccc23)c1C", "z-score": 0.402}, {"smiles": "O=C(NCCCN1CCOCC1)c1cnn2c(-c3ccccc3)cc(-c3ccccc3)nc12", "z-score": -0.635}, {"smiles": "O=C(OCCCCN1C(=O)c2ccccc2C1=O)c1ccc(Br)o1", "z-score": -0.527}, {"smiles": "CCOC(=O)c1c(NC(=O)C2c3ccccc3Oc3ccccc32)sc(C(=O)N(CC)CC)c1C", "z-score": 0.0462}, {"smiles": "O=c1c(/C=N/Nc2ccccc2)c(Sc2nnnn2-c2ccccc2)nc2ccccn12", "z-score": -0.379}, {"smiles": "CC1CCN(C(=O)C2CCC(CNS(=O)(=O)c3cccc4cccnc34)CC2)CC1", "note": "(stereo unspecified)", "z-score": -0.537}, {"smiles": "COc1ccc(N2C(=O)NC(NC(=O)c3ccncc3)(C(F)(F)F)C2=O)cc1", "note": "(stereo unspecified)", "z-score": -0.195}, {"smiles": "COC(=O)C(CC(=O)c1ccc(Cl)cc1)c1ccc(C(C)C)cc1", "note": "(stereo unspecified)", "z-score": -0.0764}, {"smiles": "Cc1c(NC(=O)CN2CCN(c3ccccc3)CC2)c(=O)n(-c2ccccc2)n1C", "z-score": -0.0454}, {"smiles": "C/C(=N\\O)C(=O)C(CN1CCCCC1)CN1CCCCC1", "z-score": 0.246}, {"smiles": "CCOC(=O)c1c(NC(=O)CSc2nc3cccnc3n2C)sc(C(C)=O)c1C", "z-score": -0.206}, {"smiles": "S=C(NC1CCCC1)N1CCN(c2ccccn2)CC1", "z-score": -0.0853}, {"smiles": "Cc1nn(-c2ccccc2)c(N2CCCC2)c1/C=N/Nc1ccc(S(=O)(=O)Nc2ccccc2)cc1[N+](=O)[O-]", "z-score": -0.151}, {"smiles": "COc1ccc([N+](=O)[O-])cc1NC(=O)CSc1nncn1-c1ccccc1", "z-score": -0.133}, {"smiles": "O=C(CN1C(=O)c2cccc3cccc1c23)NCC1CCCO1", "note": "(stereo unspecified)", "z-score": 0.744}, {"smiles": "CC1(C)CC(=O)C2=C(C1)NC(Nc1nc3ccccc3o1)=NC21CCCCC1", "z-score": 0.596}, {"smiles": "Cc1ccc(NC(=O)CSc2nc3ccccc3c3nc(CCc4c(C)n[nH]c4C)nn23)cc1F", "z-score": -0.264}, {"smiles": "COc1ccc2[nH]c3c(c2c1)CCn1c-3nc2sc(C(=O)Nc3ccccc3)c(C)c2c1=O", "z-score": -0.0758}]}]}
